# Assay results from ChEMBL document CHEMBL1201862, “PubChem BioAssay data set” (2004).
#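 Growth conditions: 96-well plates. Treatment: test compound, 48 hours, 5 concentrations. Analysis: linear interpolation between bracketing concentrations; unreached endpoints set to highest concentration. GI50 = concentration required for 50% inhibition of growth.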 Calls of active or inactive are those of the source. Rule as the data show it: active = GI50 up to about 1.1 µM and inactive = higher.
# Tested on: NCI-H322M
# Experiment: growth of human tumour cells (NCI), 48 h
row,SMILES,GI50
1,COC(=O)C1=CCC2c3[nH]c4ccccc4c3CCN2C1 (stereo unspecified),inactive: > 354 µM
2,O=c1nc(NC(c2ccccc2)(c2ccccc2)c2ccccc2)ccn1CCO,inactive: > 100 µM
3,CC(C)Oc1cccc(N2C(NCc3c[nH]c4ccccc34)=Nc3ccncc3S2(=O)=O)c1,inactive: 22.7 µM
4,COc1cc(Nc2nc3cc(C(F)(F)F)ccc3n3cccc23)cc(OC)c1OC,inactive: > 100 µM
5,O=C(c1cc2c(c3ccccc13)NC1(CCCCC1)N=C2C(F)(F)F)C(F)(F)F,inactive: 11.2 µM
6,O=C1NC2(O)c3ccccc3C(=O)C2(O)N1c1ccccc1 (stereo unspecified),inactive: > 100 µM
7,CCOC(=O)C(=Cc1ccccc1Br)C(=O)OCC,inactive: 2.62 µM
8,CCCCCCCCCCCCOCCCCCCCCC/C=C/c1ccc2c(c1)OCCOCCOCCOCCO2,inactive: 80.9 µM
9,Oc1cccc2cc(Br)cnc12,inactive: 29.2 µM
10,CN(C)CCCNC(=O)N/N=C/c1ccccc1,inactive: > 100 µM
11,CC(=O)OCC(OC(C)=O)C(OC(C)=O)C(OC(C)=O)C(=O)CNn1c(-c2ccc(C)cc2)nc2ccccc2c1=O (stereo unspecified),inactive: > 100 µM
12,C[C@@H]1CC[C@@H](C)[C@](C)(CCc2ccoc2)C/C=C\C=C/1C(=O)O,inactive: > 50 µM
13,NC(=S)NNc1c([N+](=O)[O-])cnn(-c2ccccc2)c1=O,inactive: 17.9 µM
14,CC(C)c1cc(=O)[nH]c2cc(N)ccc12,inactive: > 100 µM
15,CCOC(=O)c1ccc(N(CCOS(=O)(=O)c2ccc(C)cc2)CCOS(=O)(=O)c2ccc(C)cc2)cc1,inactive: > 100 µM
16,COc1ccc(OC)c(NC(=O)CCC/C(CC(=O)c2ccc(O)c(OC)c2)=N\NC(=O)C[N+](C)(C)C)c1,inactive: > 100 µM
17,COc1ncc(C#CC(=O)c2ccccc2)c(OC)n1,inactive: 17.3 µM
18,Cc1ncc([N+](=O)[O-])n1CCNCCCn1ccnc1[N+](=O)[O-],inactive: > 100 µM
19,COc1ccc(N[S+]([O-])CCCc2ccccc2)cc1 (stereo unspecified),inactive: > 100 µM
20,Nc1nc(-c2ccccc2)c(Cl)c(-c2cc(Cl)ccc2O)n1,inactive: 20.8 µM
21,Cc1nc(-c2nc(C)c(C(=O)NN(C)C)s2)sc1C(=O)NN(C)C,inactive: > 100 µM
22,CCCCNC(=S)Nc1nc(C(=O)NNC(=S)Nc2ccccc2)cs1,inactive: 77.3 µM
23,COc1ccc2c(CCNC(C)=O)c(C(C)=O)[nH]c2c1,inactive: 89.9 µM

row,SMILES,GI50
1,CC(C)(C)c1ccc2c(c1)C#Cc1cc(C(C)(C)C)ccc1OCCCO2,inactive: > 100 µM
2,CC(C)(C)NC(=O)C12C3C4C1C1C2C3C41C(=O)NC(C)(C)C (stereo unspecified),inactive: > 100 µM
3,CC(NNC(=O)CC(=O)N(C(=O)c1ccccc1)c1ccc(Cl)cc1)c1cc2ccccc2oc1=O (stereo unspecified),inactive: > 10 µM
4,CC(=O)OCC(OC(C)=O)C(OC(C)=O)C(/C=N\Nc1nc2ccccc2c(=O)[nH]1)=N\Nc1nc2ccccc2c(=O)[nH]1 (stereo unspecified),inactive: > 100 µM
5,CCOC(=O)C1=C(C)N(c2ccc(C)cc2)C2(O)C=CC(O)=C3C(=O)c4ccccc4C(=O)C312 (stereo unspecified),inactive: 36.1 µM
6,C/C=C(/C)C(=O)O[C@H]1CCN2CC=C(COC(=O)[C@@](O)([C@H](C)OC)C(C)(C)O)[C@H]12,inactive: > 100 µM
7,COc1ccc(/C(Cl)=C(\C=O)c2ccc([N+](=O)[O-])cc2)cc1OC,inactive: 15.1 µM
8,COc1cc(/C=C\c2ccccn2)cc(OC)c1OC,inactive: > 100 µM
9,NC(=O)C(=CNC(=S)Nc1cccc(C(F)(F)F)c1)C(N)=O,inactive: > 100 µM
10,CC1CCC(C(C)(C)c2ccccc2)C(=O)C1 (stereo unspecified),inactive: > 100 µM
11,O=C(c1ccco1)N(Cc1ccco1)C(=S)Nc1ccccc1,inactive: 41.9 µM
12,O=C1[C@H]2ON(c3ccccc3)C(c3ccccc3Cl)[C@H]2C(=O)N1c1ccc(Cc2ccc(N3C(=O)[C@@H]4ON(c5ccccc5)C(c5ccccc5Cl)[C@@H]4C3=O)cc2)cc1 (stereo partly specified),inactive: > 100 µM
13,COc1cc2c[n+]3ccc4cc(OC)c(OC)cc4c3cc2cc1O,inactive: > 100 µM
14,CNC(=O)C1CCC(=O)N1CN(C(C)=O)c1ccccc1 (stereo unspecified),inactive: > 100 µM
15,OCC1C(OCc2ccccc2)C(OCc2ccccc2)C(OCc2ccccc2)CN1Cc1ccccc1 (stereo unspecified),inactive: 13 µM
16,CCCCCCCCCC[C@@H](O)[C@@H]1CC[C@@H]([C@@H]2CC[C@@H]([C@@H](O)CCCCCCCCCCC(O)CC3=CC(C)OC3=O)O2)O1 (stereo partly specified),inactive: 7.33 µM
17,C[C@@H](NC1CCC[C@H]1O)c1ccccc1 (stereo partly specified),inactive: > 100 µM
18,C[C@H]1CCC2C(CN3CCCCC3)C(=O)OC2[C@]2(C)C(=O)CC(N3CCCCC3)C12O (stereo partly specified),inactive: 13.5 µM
19,O=C1Nc2ccccc2/C1=C\c1c(Cl)[nH]c2ccccc12,inactive: 1.71 µM
20,CN(C)CCCNc1c2ccccc2[n+]([O-])c2ccccc12,inactive: 43.5 µM
21,CC(CCC[C@H](C)CO)[C@H]1[C@@H](O)C(O)C2[C@@H]3C[C@@H](O)C4(O)C[C@@H](O)CC[C@]4(C)C3CC[C@@]21C (stereo partly specified),inactive: > 100 µM
22,Nc1[nH]c(Nc2ccc(Cl)c(Cl)c2)nc2ncnc1-2,inactive: 14.9 µM
23,Cc1c2cc[n+](C)cc2c(C)c2c1[nH]c1ccccc12,active: 0.755 µM
